# Measurements as given in PubChem BioAssay AID1240 (Sanford-Burnham Center for Chemical Genomics, 2008).
# Out of some 50,000 compounds screened, about 800 (1.6%) showed an effect of 50% or more. Some of the results follow.
# Molecular target: Bcl-2-like protein 10 (Homo sapiens) (UniProt Q9HD36)
# Assay: Phenotype converters, Bcl-B/TR3 peptide binding displacement, primary biochemical FP (AID 1240);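 further: 0% = Bcl-B with tracer peptide and DMSO and 100% = tracer peptide lacking Bcl-B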
# Conditions: GST-Bcl-B / FITC-TR3 peptide fluorescence polarization; stronger effect = higher value; compound at 3.75 mg/L
# Chain of UniProt Q9HD36 (Q9HD36 whole entry, looked up): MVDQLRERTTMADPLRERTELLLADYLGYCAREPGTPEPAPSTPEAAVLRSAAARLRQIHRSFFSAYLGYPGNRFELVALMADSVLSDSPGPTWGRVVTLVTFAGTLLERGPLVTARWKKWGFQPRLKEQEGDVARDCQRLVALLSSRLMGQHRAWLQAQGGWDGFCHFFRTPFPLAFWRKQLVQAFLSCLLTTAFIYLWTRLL
row,SMILES,displacement [%]
1,O=P(CO)(Cc1ccccc1)Cc1ccccc1,0.4
2,CCOC(=O)C1(P(=O)(c2ccccc2)c2ccccc2)CCOCC1,15.5
3,O=C(COc1cccc(Cl)c1)Nc1ccc(OCc2ccccc2)cc1,1
4,COC(=O)C1=NN(C(=O)C(C)C)C(O)(c2ccccc2)C1 (stereo unspecified),-11.7
5,Cc1sc(-c2c(C#N)c(N)nc3c2CCCCC3)cc1Br,-3.7
6,COc1ccc(/C=N/Nc2nc(N3CCCCC3)nc(N3CCCCC3)n2)cc1OC,-0.1
7,O=C(c1ccccc1Br)N1CCN(c2c(Cl)cccc2[N+](=O)[O-])CC1,6.4
8,Cc1cc(OCC(=O)Nc2ccc(Cl)cc2C)ccc1Br,8.7
9,COc1ccc(CCNC(=O)c2ccc(CN(c3ccccc3)S(C)(=O)=O)cc2)cc1OC,1.6
10,CCC(C)Oc1nc2ccccc2nc1NS(=O)(=O)c1ccccc1 (stereo unspecified),20.4
11,Cc1ccc(-c2ccc(OCC(=O)Nc3ccc4c(c3)OCCO4)cc2)cc1,-3.4
12,COc1ccc(C2NN=C(c3ccccc3)S2)c2ccccc12 (stereo unspecified),-4.2
13,COc1ccccc1CC(=O)Nc1nccs1,14.6
14,COc1cc(/C=C2\C(=O)NC(=O)N(c3ccc(Br)cc3)C2=O)cc([N+](=O)[O-])c1O,-6.3
15,COCCCNC(=O)CN(c1ccc(Cl)cc1)S(C)(=O)=O,2.8
16,O=C(Cc1ccccc1)c1ccc(O)cc1O,21
17,C/C(CC(=O)N1CCCCC1)=N\NC(=O)c1cccc(O)c1,-5.1
18,Oc1c(Cl)cc(Cl)cc1/C=N/Nc1ncc(Br)cn1,-8
19,CC(=O)C1=C(O)C(=O)N(c2nc3ccccc3s2)C1c1ccccc1 (stereo unspecified),-9.1
20,Cc1ccc(P(=O)(CC(=O)O)c2ccc(C)cc2)cc1,6.9
21,CC(=O)N1CCN(c2ccc(NC(=O)c3cccc([N+](=O)[O-])c3)cc2)CC1,5.3
22,CCOC(=O)c1sc(-n2nc(C)cc2C)nc1C,-8.5
23,CCCCOc1ccc(C(=O)NCCOc2ccc(C)c(C)c2)cc1,8.1
24,COc1cccc(NC(=O)c2cc([N+](=O)[O-])ccc2Br)c1,0.9

row,SMILES,displacement [%]
1,COc1ccc2ccccc2c1/C=C1\SC(=S)N(CC(=O)O)C1=O,9.6
2,Cc1ccc(C2CC(C(F)(F)F)n3nc(C(=O)N4CCN(c5ccc(F)cc5)CC4)cc3N2)cc1 (stereo unspecified),6.2
3,NC(=O)C1CCN(C(=O)c2cccc(Br)c2)CC1,2.7
4,Cc1nnc(C)n1/N=C/c1ccc(O)cc1O,17.9
5,O=C(Nc1cccc2ccccc12)C(O)(c1ccccc1)c1ccccc1,15.1
6,CC(=O)NN1C(=O)/C(=C/c2cc3c(cc2[N+](=O)[O-])OCO3)SC1=S,12.3
7,COc1ccc(Cl)cc1NC(=O)Cn1nc([N+](=O)[O-])cc1C,9.1
8,COc1cc(/C=C(\NC(=O)c2cc(OC)c(OC)c(OC)c2)C(=O)NC(C(=O)O)c2ccccc2)cc(OC)c1OC (stereo unspecified),-0.7
9,CCCCCC(=C/c1ccccc1)/C=N/NC(N)=O,-2.8
10,CCCCC(=O)Nc1nnc(Cc2ccc(Cl)cc2Cl)s1,-0.2
11,COc1cc(/C=c2\sc3nc4cc(C)c(C)cc4n3c2=O)ccc1OCc1ccc(C)cc1,0.9
12,O=[N+]([O-])c1ccc(Nc2nc(OCC(F)(F)C(F)F)nc(OCC(F)(F)C(F)F)n2)cc1,12.4
13,CC(=O)NC12CC3CC(CC(O)(C3)C1)C2,-3.3
14,Cc1ccc(C=Nc2ccc(-c3ccc([N+](=O)[O-])cc3)cc2)s1,8.9
15,O=C(/C=C/c1ccccc1)C1=C(O)C(=O)N(c2ccccc2)C1c1ccccc1F (stereo unspecified),2
16,CCOC(=O)c1c(NC(=O)CCc2ccccc2)sc(C(=O)Nc2cc(C(F)(F)F)ccc2Cl)c1C,9
17,COc1c(I)cc(I)cc1C1NC(=O)c2c(sc3c2CCCC3)N1 (stereo unspecified),2
18,O=C(Nc1ccc2oc(-c3ccccc3)nc2c1)c1ccc2c(c1)OCCO2,9.6
19,Cc1ccc(OCC(=O)NNC(=O)c2ccco2)c(C)c1,30
20,O=C(O)c1cccc2c1-c1ccccc1/C2=N\O,2
21,Cc1ccnc(NC(=O)c2cc(-c3ccc(Cl)s3)nc3ccccc23)c1,-8.7
22,Cc1c(C(=O)OC(C)C)sc(NC(=O)/C=C/c2ccco2)c1C(N)=O,10
23,COc1ccccc1N1CCN(/N=C\c2ccccn2)CC1,-3.2
24,CCCN(CCC)C(=O)c1ccc(Cl)cc1,-0.6

row,SMILES,displacement [%]
1,CCOC(=O)C1=C(O)/C(=C/c2ccc(Br)cc2)SC1=Nc1cccc(Cl)c1,-0.3
2,O=C(O)CCCC(=O)Nc1ccc(CC(=O)O)cc1,0
3,CCOc1ccc(N2C(=O)NC(=O)/C(=C\c3ccc(OCC(=O)O)c(OC)c3)C2=O)cc1,12
4,CCOc1cc(C2Nc3cc(C)c(C)cc3NC3=C2C(=O)CC(C)(C)C3)cc([N+](=O)[O-])c1O (stereo unspecified),1.6
5,O=C(Nc1c(F)c(F)c(F)c(F)c1F)c1cccc(F)c1,5.3
6,Cc1ccc(C(=O)Nc2ccccc2C(=O)N2CC(C)OC(C)C2)cc1 (stereo unspecified),3.9
7,Cc1ccc(-c2nnc(-c3ccc4c(c3)OCO4)o2)cc1C,-8.2
8,Cc1ccccc1NC(=O)C(=O)NCC(C)C,11.7
9,COc1ccccc1NC(=O)c1cc(-c2ccc(C)cc2C)nc2ccccc12,-8.6
10,COc1ccc(N=Cc2cccs2)cc1,-8.4
11,O=C(O/N=C(/c1ccncc1)c1ccc([N+](=O)[O-])cc1)c1cccc(Br)c1,-5.7
12,COc1ccc(C(=O)N2CCCCCC2)cc1,-5.3
13,CC(N=Cc1ccccc1O)C12CC3CC(CC(O)(C3)C1)C2 (stereo unspecified),3.2
14,CC(=O)Nc1nonc1-c1nc2ccccc2n1Cc1ccc([N+](=O)[O-])cc1,8.1
15,CCOc1cc(/C=C2\Sc3ccccc3C2=O)ccc1OC,0.2
16,CC(C)(C)NC(=O)CN(c1ccc(Cl)cc1)S(C)(=O)=O,12.2
17,CC(C)(C)C(=O)NNC(=O)c1cc(Cl)ccc1O,-15.8
18,Cc1ccccc1CNC(=O)CSc1ccc(Cl)cc1,1.9
19,Cc1cccc(C(=O)NC(NC(=O)c2cccc(C)c2)c2cccc([N+](=O)[O-])c2)c1,13.1
20,O=C1CC(N2CCN(Cc3ccccc3)CC2)C(=O)N1c1cccc(Cl)c1 (stereo unspecified),-2.9
21,CCCCOc1ccc(/C=N/Nc2cc(OC)ncn2)cc1,-8.4
22,COC(=O)c1ccccc1NC(=O)c1cnccn1,4.3
23,O=c1oc(-c2ccccc2)nc2sc3c(c12)CCCC3,11.4
